Assay results as given in paper PMC10582461, “Self‐Aggregating Tau Fragments Recapitulate Pathologic Phenotypes and Neurotoxicity of Alzheimer's Disease in Mice” (Advanced Science, 2023).
Values belong to the binder of their own block, whether it stands above or below them.

Assays:
[1] = target: T1, full‐length 2N4R human tau (tau‐FL) (human, UniProt P10636-8 1-441); assay: co-sedimentation; tau-FL (20 µM) incubated with tau-AC or phospho-tau-AC (20 µM) at 37 °C, then 120 000 x g for 1 h at 4 °C; supernatant and pellet by SDS-PAGE/IB (anti-FLAG, TAU-5); details: both partners purified
T1 construct: microtubule-associated protein tau, human, longest isoform 2N4R, 441 residues; Cloned in pET28a; also called full-length tau; source: E. coli Rosetta 2 (DE3), pET28a, purified (heated 85 °C, HiTrap Mono S)

[2] = target: the molecule itself; assay: in vitro self-aggregation, non-reducing SDS-PAGE and immunoblot; tau-AC species alone (40-100 µM) in self-assembly buffer (10 mM HEPES pH 7.4, 100 mM NaCl, 1 mM DTT), 37 °C, shaking 250 rpm, no inducers; non-reducing SDS-PAGE, IB and CBB
[3] = target: the molecule itself; assay: negative-stain transmission electron microscopy; purified tau proteins incubated at 37 °C (with or without heparin), uranyl acetate staining

- binding result [1]: binds
B1: tau‐AC‐S324D (phospho‐mimetic mutant of tau‐AC) (domain or fragment)
chain: not shown
notes: human tau […] of 2N4R (441 residues) with S324D; numbers count on: 2N4R tau (441 residues); also called phospho-tau-AC; source: E. coli Rosetta 2 (DE3), pET28a, purified; not shown: FLAG, C-terminal, kept
- binding result [2]: binds

- binding result [1]: binds
B2: tau‐AC‐S356D (phospho‐mimetic mutant of tau‐AC) (domain or fragment)
chain: not shown
notes: human tau […] of 2N4R (441 residues) with S356D; numbers count on: 2N4R tau (441 residues); also called phospho-tau-AC; source: E. coli Rosetta 2 (DE3), pET28a, purified; not shown: FLAG, C-terminal, kept
- binding result [3]: binds

B3: tau‐AC‐S324D/S356D (tau‐AC‐SDSD, phospho‐mimetic double mutant of tau‐AC) (domain or fragment)
chain: not shown
notes: human tau […] of 2N4R (441 residues) with S324D and S356D; numbers count on: 2N4R tau (441 residues); also called phospho-tau-AC; source: E. coli Rosetta 2 (DE3), pET28a, purified; not shown: FLAG, C-terminal, kept
- binding result [3]: binds
